Laboratory results: PubChem BioAssay AID1347073 (National Center for Advancing Translational Sciences (NCATS), 2019)
The campaign covered roughly 45,000 compounds. About 200 (0.44%) were called active. Another 7% or so got no clear call; they are omitted. The call rests on the fitted dose curve; in most records, active means well fitted activation curve with a large enough effect; inconclusive means small, poorly fitted or top-dose-only effect; inactive means no such curve, though single readings can be large or run the other way. Some of the results follow.

Assay: qHTS of TDP-43 Inhibitors: NCGC Sytravon Library Screen; further: 0% is about no effect; nearly all actives have a fitted effect of over 55% in size
Settings: yeast TDP-43 toxicity rescue, BacTiter-Glo growth, 24 h; series mostly up to 46.1 µM; growth rescue (activation): at the top concentration
How it was run: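 TDP-43-expressing yeast, pregrown in raffinose, seeded at OD600 0.02 in galactose medium with compound for 24 hr at 30 deg C. Growth read by BacTiter-Glo luminescence, so rescue of toxicity appears as activation.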

Row | Structure (SMILES) | growth rescue (activation)
1 | Cc1ccccc1NC(=O)c1cccc(S(=O)(=O)N2CCOCC2)c1 | inactive: 13.7%
2 | FC(F)(F)c1nc(NCc2cccnc2)c2ccccc2n1 | inactive: 5.6%
3 | CCOC(=O)c1c(CN(CC)CC)n(-c2ccccc2)c2ccc(O)cc12 | inactive: 8.37%
4 | CNc1ccc2ncc(-c3ccccc3C(C)=O)n2n1 | inactive: 5.21%
5 | COc1ccc(CCNC(=O)C(C)c2ccc([N+](=O)[O-])cc2)cc1 (stereo unspecified) | inactive: 32.4%
6 | CCOc1ccccc1Nc1cc2n(c(=O)n1)CCc1cc(OC)c(OC)cc1-2 | inactive: 15.4%
7 | COc1ccc(NC(=O)c2cc(F)cc(F)c2)cc1S(=O)(=O)N1CCCCC1 | inactive: 13.7%
8 | CS(=O)(=O)Nc1ccccc1Oc1ccccc1 | inactive: 37%
9 | O=C(NCCCO)c1cc2c([nH]c3ccccc32)c(-c2ccc(F)cc2)n1 | inactive: -6.29%
10 | Cc1ccccc1C(=O)N1CCC(C(=O)N2CCN(Cc3ccc4c(c3)OCO4)CC2)CC1 | inactive: 16.7%
11 | COc1ccc(NC(=O)C2CCCCC2)cc1S(=O)(=O)N1CCOCC1 | inactive: -9.61%
12 | CCCCC(=O)/C=C/n1c(=S)oc2ccccc21 | inactive: 21.1%
13 | COc1ccc(CNC(=O)CN(c2ccccc2)S(=O)(=O)N(C)C)cc1 | inactive: -1.83%
14 | CN(Cc1ccccc1)C(=O)c1ccc2sc([C@@H]3O[C@H](CO)[C@H](O)[C@H](O)[C@H]3O)nc2c1 | inactive: 3.54%
15 | CCC(C)(C)C(=O)Nc1cc([N+](=O)[O-])ccc1F | inactive: 11.2%
16 | CC1CC(CCC(=O)NC(=S)Nc2ccc(Cl)cn2)C(=O)O1 (stereo unspecified) | inactive: 28.9%
17 | CN(CC(=O)Nc1ccc(S(=O)(=O)N2CCCC2)cc1)Cc1ccc(Cl)c(Cl)c1 | inactive: -24.5%
18 | CCCn1nc([N+](=O)[O-])c(C(C#N)c2nc3ccccc3o2)c(Cl)c1=O (stereo unspecified) | inactive: -10.6%
19 | O=C(CC(=O)Nc1ccc(F)cc1)Nc1ccc(F)cc1 | inactive: -8.63%
20 | O=C(Nc1ccnn1C1CCN(Cc2cccc(F)c2F)CC1)C1CCCC1 | inactive: 21.6%
21 | CCCCCCCCCCOC(=O)Cn1c(COc2ccccc2OC)[n+](C)c2ccccc21 | inactive: -69.3%
22 | Cc1ccc(N(CC(=O)NC(C)(C)C)C(=O)CS(=O)CC(=O)Nc2ccc(F)cc2)cc1 (stereo unspecified) | inactive: 1.94%

Row | Structure (SMILES) | growth rescue (activation)
23 | O=C(Nc1cc(-c2nc3ncccc3o2)ccc1Cl)c1ccc([N+](=O)[O-])o1 | inactive: 7.61%
24 | O=C1c2ccccc2CN1c1ccccc1 | inactive: -2.65%
25 | O=C(CCCN1C(=O)c2ccccc2C1=O)NC1=NCCS1 | inactive: 12.6%
26 | CCOC(=O)c1cc2c(nc1NC(=S)NCc1ccccc1)CCCC2 | inactive: 1.82%
27 | COc1ccc(C(=O)NC(=S)Nc2ccc(Cl)c(C(=O)O)c2)cc1 | inactive: 1.52%
28 | CCOC(=O)C1(Cc2cccc(Cl)c2)CCCN(C(=O)c2cccnc2)C1 (stereo unspecified) | inactive: -2.42%
29 | COc1ccc(NC(=O)C2CCC(=O)N2S(=O)(=O)c2ccc(C)cc2)cc1Cl (stereo unspecified) | inactive: 8.44%
30 | O=C(c1cccnc1)C1CCCN(Cc2nc(Cc3ccccc3F)no2)C1 (stereo unspecified) | inactive: 11.2%
31 | CCn1c(O)c(N=NC(=O)c2cccnc2)c2cc(Br)ccc21 | inactive: 4.63%
32 | CCNC(=O)COc1cccc(C(=O)NCc2ccccc2)c1 | inactive: -8.76%
33 | CN(C)c1ccc(/C=N/N(CCC(=O)NC(C)(C)C)C2=NS(=O)(=O)c3ccccc32)cc1 | inactive: 9.85%
34 | O=C(Nc1nc(OCC(F)(F)F)cnc1/C=C\c1ccccc1)c1ccsc1 | inactive: -6.28%
35 | CCOc1ccc(N2CC(C(=O)N3CCc4ccccc43)CC2=O)cc1 (stereo unspecified) | inactive: 26.2%
36 | COc1cccc(CN(Cc2ccccc2F)S(=O)(=O)c2ccc(S(=O)(=O)NCc3ccccc3)cc2)c1 | inactive: 5.34%
37 | COc1ccc(NC(=O)c2c([N+](=O)[O-])c(C(C)(C)C)nn2C)cc1 | inactive: 0.68%
38 | O=C(O)c1c(Cl)nc2ccccn12 | inactive: 4.45%
39 | Cn1c(Cn2cnc(Cl)c2Cl)nc2ccccc21 | inactive: 6%
40 | COc1ccc(C(C(=O)NC2CCCC2)N(C(=O)c2csnn2)C2CCCC2)cc1 (stereo unspecified) | inactive: -5.56%
41 | COc1ccc(S(=O)(=O)NC(=O)C2(C)CCN2C(=O)Cc2ccccc2Cl)cc1OC (stereo unspecified) | inactive: -13.1%
42 | Cc1ccc(-n2[nH]c3c4c(ccc3c2=O)C(=O)c2ccccc2C4=O)cc1 | inactive: 0.064%
43 | CC(C)(C)C1=NN(c2ccc([N+](=O)[O-])cc2)C(c2ccccc2)C1 (stereo unspecified) | inactive: 15.9%
44 | CCOc1ccc(C(=O)Nc2ccc(C(F)(F)F)n(C)c2=O)cc1 | inactive: 0.897%

Row | Structure (SMILES) | growth rescue (activation)
45 | CCOCCCNC(=O)/C(C#N)=C/c1ccc(C)o1 | inactive: 6.23%
46 | NS(=O)(=O)c1ccc(CCNC(=O)CNC(=O)c2ccc(Oc3ccccc3)cc2)cc1 | inactive: 13.7%
47 | COc1ccc(C2C3=C(CCCC3=O)N(CC(=O)O)C3=C2C(=O)CCC3)cc1Cl | inactive: 13.3%
48 | CCOC(=O)c1c(-c2cccc([N+](=O)[O-])c2)csc1NC(=O)CCCOc1ccccc1 | inactive: 5.63%
49 | O=C(Cn1nnc(-c2ccccc2)n1)NNC(=O)c1cccc([N+](=O)[O-])c1 | inactive: 11.6%
50 | COc1ccc(N2C(=O)CCC(C(=O)NCCCN3CCC(C)CC3)C2c2ccc(OC)c(OC)c2)cc1 (stereo unspecified) | inactive: -0.858%
51 | C/C(CCc1ccccc1)=N\NC(=O)c1ccc(CN2CCOCC2)cc1 | inactive: 16.6%
52 | CC(=O)Nc1ccc(NC(=O)c2sc(-c3ccccc3)nc2C)cc1 | inactive: 6.69%
53 | CCCN(C(=O)CSc1cc(-c2ccccc2)c2ccc(OC)cc2n1)C1CCS(=O)(=O)C1 (stereo unspecified) | inactive: 19.2%
54 | Clc1ccc(-c2cc(-c3nnc4n3CCCCC4)c3ccccc3n2)cc1 | inactive: 13.3%
55 | O=C(COc1cccnc1[N+](=O)[O-])N1CCN(S(=O)(=O)c2ccccc2)CC1 | inactive: 11.7%
56 | CC(C)CC(=O)Nc1c2c(nn1-c1ccc(F)cc1)CS(=O)(=O)C2 | inactive: 20.8%
57 | CN(C)S(=O)(=O)c1cccc(NC(=O)c2n[nH]c(=O)c3ccccc23)c1 | inactive: 3.78%
58 | Cc1[nH]nc(SCC(=O)Nc2cccc(O)c2)c1[N+](=O)[O-] | inactive: 4.46%
59 | CCN1C(=O)C(CC(=O)Nc2ccc(OC)cc2)N(CCCN2CCN(c3ccc(OC)cc3)CC2)C1=S (stereo unspecified) | inactive: 9.7%
60 | O=C(CN1C(=O)NC(Cc2ccccc2)C1=O)Nc1ccccc1 (stereo unspecified) | inactive: 18.2%
61 | COc1cccc(CN2CCC(CO)(CC3CCCCO3)CC2)c1 (stereo unspecified) | inactive: -14.7%
62 | O=C(c1ccc2c(c1)OCO2)C1CCCN(C2CCN(CCc3ccccc3)CC2)C1 (stereo unspecified) | inactive: 10.1%
63 | COc1ccc(CC(=O)Nc2sc3c(c2C(N)=O)CCCC3)cc1OC | inactive: 15.5%
64 | COc1ccccc1C(=O)Nc1ccccc1N1CCN(S(C)(=O)=O)CC1 | inactive: 16.3%
65 | CNc1ccccc1C(C)(C)c1cn(-c2ccc([N+](=O)[O-])cc2)nn1 | inactive: 3.38%
66 | CCn1c(CC(=O)Nc2ccccc2C)nnc1SCC(=O)Nc1nncs1 | inactive: 3.51%
